From the supplement of paper PMC8728848
This is one part of the list.

Assays:
Assay in all cases: glycan array binding signal (z-score within array); higher = stronger binding
Conditions in all cases: glycan notation: IUPAC condensed, linker removed
[1] = target: Gal(b1-4)GlcNAc(b1-3)Gal(b1-4)GlcNAc(b1-2)Man(a1-3)[Gal(b1-4)GlcNAc(b1-3)Gal(b1-4)GlcNAc(b1-2)Man(a1-6)]Man(b1-4)GlcNAc(b1-4)[Fuc(a1-6)]GlcNAc
Outline: (§1)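 Glycan array data came from 3228 arrays in the Consortium for Functional Glycomics database, and only arrays with an available protein sequence were kept. Glycan names were put into IUPAC-condensed notation, and columns mapping to the same glycan were averaged. The binding signal is a within-array Z-score, averaged across arrays of one protein sequence run at different concentrations or buffers and across linkers. A negative Z-score can be read as non-binding.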

[2] = target: Gal(b1-4)GlcNAc(b1-3)Gal(b1-4)GlcNAc(b1-2)[Gal(b1-4)GlcNAc(b1-3)Gal(b1-4)GlcNAc(b1-6)]Man(a1-6)[Gal(b1-4)GlcNAc(b1-3)Gal(b1-4)GlcNAc(b1-2)Man(a1-3)]Man(b1-4)GlcNAc(b1-4)GlcNAc
Outline: as §1

[3] = target: Gal(b1-4)GlcNAc(b1-3)Gal(b1-4)GlcNAc(b1-2)[Gal(b1-4)GlcNAc(b1-3)Gal(b1-4)GlcNAc(b1-6)]Man(a1-6)[Gal(b1-4)GlcNAc(b1-3)Gal(b1-4)GlcNAc(b1-2)Man(a1-3)]Man(b1-4)GlcNAc(b1-4)[Fuc(a1-6)]GlcNAc
Outline: as §1

[4] = target: Gal(b1-4)GlcNAc(b1-3)Gal(b1-4)GlcNAc(b1-3)Gal(b1-4)GlcNAc
Outline: as §1

[5] = target: Gal(b1-4)GlcNAc(b1-3)Gal(b1-4)GlcNAc(b1-3)Gal(b1-4)GlcNAc(b1-2)Man(a1-3)[Gal(b1-4)GlcNAc(b1-3)Gal(b1-4)GlcNAc(b1-3)Gal(b1-4)GlcNAc(b1-2)Man(a1-6)]Man(b1-4)GlcNAc(b1-4)GlcNAc
Outline: as §1

[6] = target: Gal(b1-4)GlcNAc(b1-3)Gal(b1-4)GlcNAc(b1-3)Gal(b1-4)GlcNAc(b1-2)Man(a1-3)[Gal(b1-4)GlcNAc(b1-3)Gal(b1-4)GlcNAc(b1-3)Gal(b1-4)GlcNAc(b1-2)Man(a1-6)]Man(b1-4)GlcNAc(b1-4)[Fuc(a1-6)]GlcNAc
Outline: as §1

[7] = target: Gal(b1-4)GlcNAc(b1-3)Gal(b1-4)GlcNAc(b1-3)Gal(b1-4)GlcNAc(b1-2)[Gal(b1-4)GlcNAc(b1-3)Gal(b1-4)GlcNAc(b1-3)Gal(b1-4)GlcNAc(b1-6)]Man(a1-6)[Gal(b1-4)GlcNAc(b1-3)Gal(b1-4)GlcNAc(b1-3)Gal(b1-4)GlcNAc(b1-2)Man(a1-3)]Man(b1-4)GlcNAc(b1-4)[Fuc(a1-6)]GlcNAc
Outline: as §1

[8] = target: Gal(b1-4)GlcNAc(b1-3)Gal(b1-4)GlcNAc(b1-3)Gal(b1-4)GlcNAc(b1-3)Gal(b1-4)GlcNAc(b1-2)Man(a1-3)[Gal(b1-4)GlcNAc(b1-3)Gal(b1-4)GlcNAc(b1-3)Gal(b1-4)GlcNAc(b1-3)Gal(b1-4)GlcNAc(b1-2)Man(a1-6)]Man(b1-4)GlcNAc(b1-4)GlcNAc
Outline: as §1

[9] = target: Gal(b1-4)GlcNAc(b1-3)Gal(b1-4)GlcNAc(b1-3)Gal(b1-4)GlcNAc(b1-3)Gal(b1-4)GlcNAc(b1-2)Man(a1-3)[Gal(b1-4)GlcNAc(b1-3)Gal(b1-4)GlcNAc(b1-3)Gal(b1-4)GlcNAc(b1-3)Gal(b1-4)GlcNAc(b1-2)Man(a1-6)]Man(b1-4)GlcNAc(b1-4)[Fuc(a1-6)]GlcNAc
Outline: as §1

[10] = target: Gal(b1-4)GlcNAc(b1-3)Gal(b1-4)GlcNAc(b1-3)Gal(b1-4)GlcNAc(b1-3)Gal(b1-4)GlcNAc(b1-2)[Gal(b1-4)GlcNAc(b1-3)Gal(b1-4)GlcNAc(b1-3)Gal(b1-4)GlcNAc(b1-3)Gal(b1-4)GlcNAc(b1-6)]Man(a1-6)[Gal(b1-4)GlcNAc(b1-3)Gal(b1-4)GlcNAc(b1-3)Gal(b1-4)GlcNAc(b1-3)Gal(b1-4)GlcNAc(b1-2)Man(a1-3)]Man(b1-4)GlcNAc(b1-4)[Fuc(a1-6)]GlcNAc
Outline: as §1

[11] = target: Gal(b1-4)GlcNAc(b1-3)Gal(b1-4)GlcNAc(b1-3)Gal(b1-4)GlcNAc(b1-3)Gal(b1-4)GlcNAc(b1-3)Gal(b1-4)GlcNAc(b1-2)Man(a1-3)[Gal(b1-4)GlcNAc(b1-3)Gal(b1-4)GlcNAc(b1-3)Gal(b1-4)GlcNAc(b1-3)Gal(b1-4)GlcNAc(b1-3)Gal(b1-4)GlcNAc(b1-2)Man(a1-6)]Man(b1-4)GlcNAc(b1-4)GlcNAc
Outline: as §1

[12] = target: Gal(b1-4)GlcNAc(b1-3)Gal(b1-4)GlcNAc(b1-3)Gal(b1-4)GlcNAc(b1-3)Gal(b1-4)GlcNAc(b1-3)Gal(b1-4)GlcNAc(b1-2)Man(a1-3)[Gal(b1-4)GlcNAc(b1-3)Gal(b1-4)GlcNAc(b1-3)Gal(b1-4)GlcNAc(b1-3)Gal(b1-4)GlcNAc(b1-3)Gal(b1-4)GlcNAc(b1-2)Man(a1-6)]Man(b1-4)GlcNAc(b1-4)[Fuc(a1-6)]GlcNAc
Outline: as §1

[13] = target: Gal(b1-4)GlcNAc(b1-3)Gal(b1-4)GlcNAc(b1-3)Gal(b1-4)GlcNAc(b1-3)Gal(b1-4)GlcNAc(b1-3)Gal(b1-4)GlcNAc(b1-2)[Gal(b1-4)GlcNAc(b1-3)Gal(b1-4)GlcNAc(b1-3)Gal(b1-4)GlcNAc(b1-3)Gal(b1-4)GlcNAc(b1-3)Gal(b1-4)GlcNAc(b1-6)]Man(a1-6)[Gal(b1-4)GlcNAc(b1-3)Gal(b1-4)GlcNAc(b1-3)Gal(b1-4)GlcNAc(b1-3)Gal(b1-4)GlcNAc(b1-3)Gal(b1-4)GlcNAc(b1-2)Man(a1-3)]Man(b1-4)GlcNAc(b1-4)[Fuc(a1-6)]GlcNAc
Outline: as §1

[14] = target: Gal(b1-4)GlcNAc(b1-3)Gal(b1-4)GlcNAc(b1-3)Gal(b1-4)GlcNAc(b1-3)Gal(b1-4)GlcNAc(b1-3)Gal(b1-4)GlcNAc(b1-3)Gal(b1-4)GlcNAc(b1-2)Man(a1-3)[Gal(b1-4)GlcNAc(b1-3)Gal(b1-4)GlcNAc(b1-3)Gal(b1-4)GlcNAc(b1-3)Gal(b1-4)GlcNAc(b1-3)Gal(b1-4)GlcNAc(b1-3)Gal(b1-4)GlcNAc(b1-2)Man(a1-6)]Man(b1-4)GlcNAc(b1-4)GlcNAc
Outline: as §1

[15] = target: Gal(b1-4)GlcNAc(b1-3)Gal(b1-4)GlcNAc(b1-3)GalNAc
Outline: as §1

[16] = target: Gal(b1-4)GlcNAc(b1-3)Gal(b1-4)GlcNAc(b1-3)[Gal(b1-4)GlcNAc(b1-3)Gal(b1-4)GlcNAc(b1-6)]GalNAc
Outline: as §1

[17] = target: Gal(b1-4)GlcNAc(b1-3)Gal(b1-4)GlcNAc(b1-6)[Gal(b1-3)]GalNAc
Outline: as §1

[18] = target: Gal(b1-4)GlcNAc(b1-3)Gal(b1-4)[Fuc(a1-3)]GlcNAc(b1-3)Gal(b1-4)[Fuc(a1-3)]GlcNAc
Outline: as §1

[19] = target: Gal(b1-4)GlcNAc(b1-3)GalNAc
Outline: as §1

[20] = target: Gal(b1-4)GlcNAc(b1-3)[Fuc(a1-3)GlcNAc(b1-6)]Gal(b1-4)Glc
Outline: as §1

[21] = target: Gal(b1-4)GlcNAc(b1-3)[Gal(b1-4)GlcNAc(b1-6)]Gal(b1-4)GlcNAc
Outline: as §1

[22] = target: Gal(b1-4)GlcNAc(b1-3)[GlcNAc(b1-6)]Gal(b1-4)GlcNAc
Outline: as §1

[23] = target: Gal(b1-4)GlcNAc(b1-6)Gal(b1-4)GlcNAc
Outline: as §1

[24] = target: Gal(b1-4)GlcNAc(b1-6)GalNAc
Outline: as §1

[25] = target: Gal(b1-4)GlcNAc(b1-6)[Gal(b1-3)]GalNAc
Outline: as §1

[26] = target: Gal(b1-4)GlcNAc(b1-6)[Gal(b1-4)GlcNAc(b1-3)]GalNAc
Outline: as §1

Gal(b1-4)GlcNAc6P = target: Gal(b1-4)GlcNAc6P
Outline: as §1

Gal(b1-6)Gal = target: Gal(b1-6)Gal
Outline: as §1

Gal3S(b1-3)GalNAc = target: Gal3S(b1-3)GalNAc
Outline: as §1

Gal3S(b1-3)GlcNAc = target: Gal3S(b1-3)GlcNAc
Outline: as §1

[27] = target: Gal3S(b1-3)[Fuc(a1-4)]GlcNAc
Outline: as §1

Gal3S(b1-4)Glc = target: Gal3S(b1-4)Glc
Outline: as §1

Gal3S(b1-4)Glc6S = target: Gal3S(b1-4)Glc6S
Outline: as §1

Gal3S(b1-4)GlcNAc = target: Gal3S(b1-4)GlcNAc
Outline: as §1

[28] = target: Gal3S(b1-4)[Fuc(a1-3)]Glc6S
Outline: as §1

[29] = target: Gal3S(b1-4)[Fuc(a1-3)]GlcNAc
Outline: as §1

[30] = target: Gal3S(b1-4)[Fuc(a1-3)]GlcNAc6S
Outline: as §1

B1: Siglec-E (Mus musculus), Q91Y57 (protein)
chain: MLLLLLLLLLWGIKGVEGQNPQEVFTLNVERKVVVQEGLCVLVPCNFSYLKKRLTDWTDSDPVHGFWYREGTDRRKDSIVATNNPIRKAVKETRNRFFLLGDPWRNDCSLNIREIRKKDAGLYFFRLERGKTKYNYMWDKMTLVVTALTNTPQILLPETLEAGHPSNLTCSVPWDCGWTAPPIFSWTGTSVSFLSTNTTGSSVLTITPQPQDHGTNLTCQVTLPGTNVSTRMTTRLNVSYAPKNLTVTIYQGADSVSTILKNGSSLPISEGQSLRLICSTDSYPPANLSWSWDNLTLCPSKLSKPGLLELFPVHLKHGGVYTCQAQHALGSQHISLSLSPQSSATLSEMMMGTFVGSGVTALLFLSVCILLLAVRSYRRKPARPAVVAPHPDALKVSVSQNPLVESQADDSSEPLPSILEAAPSSTEEEIHYATLSFHEMKPMNLWGQQDTTTEYSEIKFPQRTAWP
glycan array binding signal (z-score) [1]: -0.314
glycan array binding signal (z-score) [2]: 0.554
glycan array binding signal (z-score) [3]: -0.445
glycan array binding signal (z-score) [4]: -0.413
glycan array binding signal (z-score) [5]: -0.064
glycan array binding signal (z-score) [6]: -0.527
glycan array binding signal (z-score) [7]: -0.364
glycan array binding signal (z-score) [8]: -0.507
glycan array binding signal (z-score) [9]: -0.365
glycan array binding signal (z-score) [10]: -0.399
glycan array binding signal (z-score) [11]: -0.53
glycan array binding signal (z-score) [12]: 0.998
glycan array binding signal (z-score) [13]: -0.46
glycan array binding signal (z-score) [14]: -0.356
glycan array binding signal (z-score) [15]: 0.327
glycan array binding signal (z-score) [16]: -0.06
glycan array binding signal (z-score) [17]: -0.317
glycan array binding signal (z-score) [18]: -0.039
glycan array binding signal (z-score) [19]: -0.501
glycan array binding signal (z-score) [20]: -0.375
glycan array binding signal (z-score) [21]: -0.241
glycan array binding signal (z-score) [22]: -0.372
glycan array binding signal (z-score) [23]: -0.382
glycan array binding signal (z-score) [24]: -0.195
glycan array binding signal (z-score) [25]: -0.381
glycan array binding signal (z-score) [26]: -0.412
glycan array binding signal (z-score) (Gal(b1-4)GlcNAc6P): 0.22
glycan array binding signal (z-score) (Gal(b1-6)Gal): 0.545
glycan array binding signal (z-score) (Gal3S(b1-3)GalNAc): -0.126
glycan array binding signal (z-score) (Gal3S(b1-3)GlcNAc): -0.284
glycan array binding signal (z-score) [27]: -0.344
glycan array binding signal (z-score) (Gal3S(b1-4)Glc): 0.644
glycan array binding signal (z-score) (Gal3S(b1-4)Glc6S): 0.669
glycan array binding signal (z-score) (Gal3S(b1-4)GlcNAc): -0.283
glycan array binding signal (z-score) [28]: 0.707
glycan array binding signal (z-score) [29]: -0.24
glycan array binding signal (z-score) [30]: 0.678
